Experimental findings from the BET-seq Pho4 binding data (Le et al. 2018) are described below.

This is one part of the list. Values were computed here from the reads of four pooled replicates and scatter widely.

The test addresses T1, Pho4 (S. cerevisiae) (UniProt P07270).
T1 sequence: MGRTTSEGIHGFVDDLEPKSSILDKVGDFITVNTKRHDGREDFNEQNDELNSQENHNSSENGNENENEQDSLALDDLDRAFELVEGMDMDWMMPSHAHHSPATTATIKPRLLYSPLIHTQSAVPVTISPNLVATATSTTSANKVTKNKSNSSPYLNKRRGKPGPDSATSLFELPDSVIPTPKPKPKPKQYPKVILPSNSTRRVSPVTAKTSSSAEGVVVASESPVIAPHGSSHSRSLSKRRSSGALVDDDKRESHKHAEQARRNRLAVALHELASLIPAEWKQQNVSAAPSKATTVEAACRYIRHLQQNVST
Put plainly: relative binding free energy (BET-seq); higher = weaker binding. As to conditions: reference: library average.
Turning to CTTTTCACGTGGGTTT, the “relative binding free energy” value amounted to 0.27 kcal/mol.

As to TTTTACACGTGTTGCT, the “relative binding free energy” value stood at 0.09 kcal/mol.

On to CTGACCACGTGGGGGT, for which the “relative binding free energy” value was -0.29 kcal/mol.

TTTGGCACGTGGACCT: the “relative binding free energy” value is -0.11 kcal/mol.

As to CGTGTCACGTGACGGG, the “relative binding free energy” value was found to be 0.12 kcal/mol.

For the sequence AGTAACACGTGGGCGG, the “relative binding free energy” value is -0.16 kcal/mol.

TATTCCACGTGTGGTG: the “relative binding free energy” value is -0.02 kcal/mol.

Turning to ATTTGCACGTGGACTG, the “relative binding free energy” value is -0.03 kcal/mol.

As to TGATACACGTGGTGAA, the “relative binding free energy” value was -0.03 kcal/mol.

Consider GACGGCACGTGCGGTG, for which the “relative binding free energy” value was -0.09 kcal/mol.

Consider AGCTGCACGTGTTGAG, for which the “relative binding free energy” value is -0.06 kcal/mol.

For the sequence GATTGCACGTGAATGG, the “relative binding free energy” value was found to be 0.27 kcal/mol.

ATGAACACGTGGCGTG: the “relative binding free energy” value is -0.18 kcal/mol.

For GCTGTCACGTGGGGAG, the “relative binding free energy” value amounted to 0.03 kcal/mol.

GTTTGCACGTGCAAGG: the “relative binding free energy” value is 0.12 kcal/mol.

GTGTACACGTGGGGAG: the “relative binding free energy” value came to 0.05 kcal/mol.

Take CTGGGCACGTGAAGGG: the “relative binding free energy” value came to 0.1 kcal/mol.

For the sequence ATTGTCACGTGAGGTA, the “relative binding free energy” value was determined as 0.26 kcal/mol.

Take ATGGGCACGTGCTTGG: the “relative binding free energy” value was -0.15 kcal/mol.

On to TATAGCACGTGTTGAG, for which the “relative binding free energy” value was -0.11 kcal/mol.

For the sequence GACTGCACGTGAGGTT, the “relative binding free energy” value is 0.2 kcal/mol.

For the sequence AGTATCACGTGTTTGA, the “relative binding free energy” value was determined as 0.06 kcal/mol.

Take TTTGTCACGTGTATTC: the “relative binding free energy” value was found to be 0.16 kcal/mol.

Consider CACGTCACGTGGTGTG, for which the “relative binding free energy” value is -0.1 kcal/mol.

GCGAACACGTGGTGTT: the “relative binding free energy” value stood at 0.07 kcal/mol.

As for ATTGCCACGTGTAGTG, the “relative binding free energy” value is -0.16 kcal/mol.

Take TTGATCACGTGGAGTC: the “relative binding free energy” value came to 0.22 kcal/mol.

Take TTAGGCACGTGATTGA: the “relative binding free energy” value came to 0.07 kcal/mol.

Turning to GGGGTCACGTGCCCGG, the “relative binding free energy” value amounted to 0.13 kcal/mol.

For GGATACACGTGTACGT, the “relative binding free energy” value was determined as 0.04 kcal/mol.

For AGAGACACGTGGGTTA, the “relative binding free energy” value is -0.12 kcal/mol.

For TAATTCACGTGATATG, the “relative binding free energy” value is 0.3 kcal/mol.

Take CTATTCACGTGGTTAT: the “relative binding free energy” value amounted to 0.23 kcal/mol.

Regarding CTTTACACGTGTGGGA, the “relative binding free energy” value amounted to 0.07 kcal/mol.

Take TTGTTCACGTGCGGCG: the “relative binding free energy” value is 0.19 kcal/mol.

For ATTGTCACGTGGAGCT, the “relative binding free energy” value was -0.07 kcal/mol.

For ATAAGCACGTGGTTTA, the “relative binding free energy” value is -0.25 kcal/mol.

Regarding AGAGTCACGTGCAGCG, the “relative binding free energy” value was determined as 0.18 kcal/mol.

On to AGTCTCACGTGGAATT, for which the “relative binding free energy” value stood at 0.46 kcal/mol.

As to TTTTGCACGTGCGCAT, the “relative binding free energy” value was -0.15 kcal/mol.

For the sequence GGGCGCACGTGTGTGG, the “relative binding free energy” value was found to be 0.05 kcal/mol.

With TGTGCCACGTGGCGTG, the “relative binding free energy” value is -0.13 kcal/mol.

For the sequence TGGATCACGTGAATGC, the “relative binding free energy” value amounted to 0.34 kcal/mol.

TGTTACACGTGCGTTA: the “relative binding free energy” value stood at 0.04 kcal/mol.

With TGAGGCACGTGTTTAA, the “relative binding free energy” value is -0.08 kcal/mol.

TTGATCACGTGGAAGT: the “relative binding free energy” value was found to be 0.24 kcal/mol.

Turning to CGGTTCACGTGGGTCT, the “relative binding free energy” value is 0.13 kcal/mol.

Take TTAATCACGTGATCGG: the “relative binding free energy” value is 0.21 kcal/mol.

In the case of TTAACCACGTGAGGGG, the “relative binding free energy” value is 0.2 kcal/mol.

In the case of CGAGGCACGTGGTGAT, the “relative binding free energy” value is -0.27 kcal/mol.

For TTGTGCACGTGTTGTC, the “relative binding free energy” value was 0.03 kcal/mol.

Turning to TTGCGCACGTGTTTGT, the “relative binding free energy” value is -0.2 kcal/mol.

As to AGCGGCACGTGGTAGA, the “relative binding free energy” value is -0.13 kcal/mol.

Take GTGGGCACGTGGCCTG: the “relative binding free energy” value was -0.13 kcal/mol.

As to TTAGACACGTGAGCGG, the “relative binding free energy” value amounted to 0.23 kcal/mol.

Take CGGGTCACGTGTTAGT: the “relative binding free energy” value was determined as 0.15 kcal/mol.

As for GGGCTCACGTGGCGAG, the “relative binding free energy” value turned out to be 0.16 kcal/mol.

As for TCGATCACGTGTTTGC, the “relative binding free energy” value is 0.37 kcal/mol.

In the case of TGGTACACGTGAAAGG, the “relative binding free energy” value was determined as 0.32 kcal/mol.

Take CTGGGCACGTGTGGGT: the “relative binding free energy” value was -0.09 kcal/mol.

For the sequence TAGTACACGTGACTGG, the “relative binding free energy” value was determined as 0.18 kcal/mol.

In the case of CTGGTCACGTGGCAGG, the “relative binding free energy” value amounted to 0.12 kcal/mol.

Turning to CCGTGCACGTGCGGGG, the “relative binding free energy” value is -0.06 kcal/mol.

Consider GATGACACGTGGTTGC, for which the “relative binding free energy” value came out at 0.06 kcal/mol.

Regarding TAGCGCACGTGAATGG, the “relative binding free energy” value came to 0.14 kcal/mol.

For the sequence CGTTGCACGTGCAAGT, the “relative binding free energy” value was found to be 0.17 kcal/mol.

For the sequence TATGGCACGTGGACAT, the “relative binding free energy” value was -0.06 kcal/mol.

With CATAGCACGTGAGGTA, the “relative binding free energy” value is 0.14 kcal/mol.

On to TTTTGCACGTGGGCAC, for which the “relative binding free energy” value is -0.18 kcal/mol.

Turning to GCAAGCACGTGTGGGT, the “relative binding free energy” value came to 0.01 kcal/mol.

Turning to TGGATCACGTGGATAT, the “relative binding free energy” value was 0.08 kcal/mol.

Turning to TTTAGCACGTGATATG, the “relative binding free energy” value came out at 0.11 kcal/mol.

For CGTGGCACGTGGGTTT, the “relative binding free energy” value is -0.19 kcal/mol.

As to AAAAGCACGTGTTTAT, the “relative binding free energy” value was -0.03 kcal/mol.

For the sequence GAGTTCACGTGTATAG, the “relative binding free energy” value is 0.34 kcal/mol.

CTGTGCACGTGGGCGT: the “relative binding free energy” value was -0.21 kcal/mol.

Turning to GGTGTCACGTGAGTGG, the “relative binding free energy” value worked out at 0.29 kcal/mol.

On to ACGGACACGTGGGGCT, for which the “relative binding free energy” value is -0.08 kcal/mol.

Turning to CGATACACGTGTGGGT, the “relative binding free energy” value worked out at 0.02 kcal/mol.

For GGGAACACGTGTTTAT, the “relative binding free energy” value was determined as 0.06 kcal/mol.

Consider TTTCACACGTGATTGG, for which the “relative binding free energy” value was 0.09 kcal/mol.

On to AATTTCACGTGCGGGG, for which the “relative binding free energy” value worked out at 0.06 kcal/mol.

For GACAGCACGTGGTGAG, the “relative binding free energy” value is -0.02 kcal/mol.

Consider GAAGTCACGTGGTGGC, for which the “relative binding free energy” value amounted to 0.13 kcal/mol.

Turning to CTGGTCACGTGGTTGG, the “relative binding free energy” value was found to be 0.07 kcal/mol.

GGTGGCACGTGATGCC: the “relative binding free energy” value came out at 0.12 kcal/mol.

Take CAAGTCACGTGTGGGG: the “relative binding free energy” value worked out at 0.2 kcal/mol.

In the case of GGGGTCACGTGGATCT, the “relative binding free energy” value turned out to be 0.22 kcal/mol.

On to TTTAACACGTGTAGGC, for which the “relative binding free energy” value is 0.23 kcal/mol.

On to TTAAACACGTGTGTTC, for which the “relative binding free energy” value amounted to 0 kcal/mol.

On to ATTGGCACGTGGATGG, for which the “relative binding free energy” value was -0.08 kcal/mol.

For the sequence GAGTGCACGTGAGATA, the “relative binding free energy” value was 0.3 kcal/mol.

For AAAAGCACGTGAGTGG, the “relative binding free energy” value came to 0.14 kcal/mol.

In the case of TATGTCACGTGTACTG, the “relative binding free energy” value turned out to be 0.12 kcal/mol.

GGGTACACGTGTGGCA: the “relative binding free energy” value was found to be 0.07 kcal/mol.

In the case of GAGAGCACGTGCGGGA, the “relative binding free energy” value was -0.11 kcal/mol.

As to ATTGGCACGTGGGACG, the “relative binding free energy” value is -0.22 kcal/mol.

Take GGTGTCACGTGGGTAA: the “relative binding free energy” value is 0.01 kcal/mol.

Regarding TAGGACACGTGTAGGT, the “relative binding free energy” value worked out at 0.17 kcal/mol.

As for TGTTACACGTGGTTGT, the “relative binding free energy” value is 0.07 kcal/mol.

Consider TCAGGCACGTGGTAGA, for which the “relative binding free energy” value is -0.16 kcal/mol.

Consider TATTTCACGTGGAGTT, for which the “relative binding free energy” value was 0.24 kcal/mol.

TAGGGCACGTGCGACG: the “relative binding free energy” value is 0.01 kcal/mol.

Consider ATAGGCACGTGTCAGG, for which the “relative binding free energy” value is -0.01 kcal/mol.

Consider CTTGGCACGTGAATTA, for which the “relative binding free energy” value stood at 0.39 kcal/mol.

Turning to TTTAACACGTGTCGTA, the “relative binding free energy” value was -0.08 kcal/mol.

For TTATTCACGTGGCCGG, the “relative binding free energy” value stood at 0.24 kcal/mol.

On to AGGGGCACGTGTGGAA, for which the “relative binding free energy” value came to 0.03 kcal/mol.

Take TGATGCACGTGAGGTG: the “relative binding free energy” value was 0.22 kcal/mol.

Regarding GTAACCACGTGGCGGT, the “relative binding free energy” value is -0.05 kcal/mol.

Take TGTTGCACGTGAGTGG: the “relative binding free energy” value was 0.26 kcal/mol.

As for TAGTTCACGTGTATCA, the “relative binding free energy” value amounted to 0.14 kcal/mol.

Consider TGAGGCACGTGGTTCG, for which the “relative binding free energy” value was -0.25 kcal/mol.

In the case of GTTCTCACGTGTTTGG, the “relative binding free energy” value worked out at 0.37 kcal/mol.

Consider GGGTGCACGTGGGACA, for which the “relative binding free energy” value was -0.13 kcal/mol.
